Test results: the supplement of paper PMC4166925
± gives the standard deviation of the averaged measurements. In all, about 33,000 sequences were measured (“E-score (dimensionless, -0.5 to 0.5)”: median about -0.046, highest 2% from about 0.36 on). The list shows a part of the results.

What follows are sequences tested on T1, SpTbr T-box DNA-binding domain (GST fusion) (assay: PBM E-score of 8-mer (E-score (dimensionless, -0.5 to 0.5)); Tbr is Tbrain of the sea star Patiria miniata (Pm) or the sea urchin Strongylocentrotus purpuratus (Sp); higher = stronger binding preference; most listed sequences are background and not binding sites). Conditions: the construct has about 5 more residues each side.
T1 sequence: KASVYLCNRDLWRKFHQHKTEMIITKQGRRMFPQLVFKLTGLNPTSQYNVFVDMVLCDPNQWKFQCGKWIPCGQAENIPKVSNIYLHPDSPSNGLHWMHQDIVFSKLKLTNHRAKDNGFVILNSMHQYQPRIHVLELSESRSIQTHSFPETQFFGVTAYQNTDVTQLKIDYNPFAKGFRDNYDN
Protocol: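 Universal protein-binding microarray (Agilent AMADID 016060, 60-bp probes with a 35-bp variable region) incubated with 200 nM GST-fused Strongylocentrotus purpuratus Tbr T-box DNA-binding domain (residues 362-554) in PBS pH 7.5. Scored for every ungapped 8-mer (given with its reverse complement) as E-score (range -0.5 to 0.5; >0.45 counts as bound) and Z-score of median probe intensity. Two replicate arrays (datasets 1 and 2).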
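Note: protein at 200 nM in PBS on universal double-stranded arrays.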

Sequence	PBM E-score of 8-mer
GAGAGGTA	-0.0848 ± 0.015
CAACTTTC	0.112 ± 0.053
CTCTTTGC	-0.0452 ± 0.0034
AACAGTTC	0.172 ± 0.01
GTTAACAA	0.362 ± 0.018
AAGACGGA	-0.0813 ± 0.079
TATCTGAA	-0.0546 ± 0.013
CTCGACCC	-0.088 ± 0.02
AATTTCGA	-0.103 ± 0.11
ATAGGAGC	-0.181 ± 0.022
GAAGAGAA	-0.176 ± 0.0081
GTAGATTA	0.0105 ± 0.069
CTAGACAC	0.0881 ± 0.056
ATAGGCTA	-0.348 ± 0.041
CCTAATTC	-0.0257 ± 0.024
TGCAGGAA	-0.131 ± 0.051
AAAAACCG	-0.0997 ± 0.088
CACGTGCG	0.29 ± 0.085
CACCTCCA	0.3876 ± 0.00048
TAACAACA	0.278 ± 0.0062
CTTGTTGC	0.0822 ± 0.063
ATTAGCCG	0.0144 ± 0.016

Sequence	PBM E-score of 8-mer
ACCATAGC	0.0118 ± 0.017
ACACGTTA	0.344 ± 0.043
AAAAATTC	-0.141 ± 0.074
AAAAGCAC	0.0712 ± 0.058
ATAATCAG	-0.106 ± 0.04
CATGGGTA	-0.112 ± 0.056
CGTATGAC	0.0605 ± 0.0076
GTCTGGTA	-0.259 ± 0.096
GATGAAGC	0.00808 ± 0.033
GGCTCGAA	0.0162 ± 0.025
TCTACCCA	-0.151 ± 0.034
GAGGACCC	0.0477 ± 0.098
CACGTAAG	0.0351 ± 0.016
CCGCTGTC	0.0178 ± 0.022
AAGCCTGC	-0.1361 ± 0.001
ATTGACAA	0.298 ± 0.026
TATACCGA	-0.0854 ± 0.08
CCAGCAAA	-0.0864 ± 0.1
AAATTTGC	-0.00247 ± 0.095
AAATACTA	-0.0117 ± 0.0063
ACCTAGCG	0.337 ± 0.022
ATAGCTGG	-0.126 ± 0.061

Sequence	PBM E-score of 8-mer
AGGGGCGG	-0.00628 ± 0.07
CAATAGGG	-0.2 ± 0.046
CGAGTCCC	-0.124 ± 0.022
AAACCCAC	-0.0359 ± 0.093
ACATTGTC	0.236 ± 0.0082
ACGCAGAA	0.0756 ± 0.0091
ACAATTGA	0.0446 ± 0.019
GTTTAAGA	-0.164 ± 0.02
ACCGCAGC	0.0284 ± 0.013
AGTTTGAA	-0.0917 ± 0.046
CTCTCAGC	0.00924 ± 0.042
CCCGCTCG	0.0358 ± 0.11
AGATTAAC	0.0515 ± 0.0022
ATACCAGG	-0.1212 ± 0.00018
CCACGGGC	-0.227 ± 0.019
ATAGTACG	-0.111 ± 0.0061
CAATGATC	-0.0771 ± 0.0056
ATTGGACA	-0.108 ± 0.071
AAGCCAAG	-0.318 ± 0.074
CATCGATG	0.00634 ± 0.096
CACACGGA	0.201 ± 0.1
GGGCTACC	-0.221 ± 0.024

Sequence	PBM E-score of 8-mer
CTGCGACA	0.198 ± 0.036
CTCAAGAG	-0.0815 ± 0.017
AGCTCTAA	-0.276 ± 0.025
AGCATGCA	-0.145 ± 0.036
CACTAATA	0.068 ± 0.037
AGACACCT	0.4345 ± 0.003
ATATTGTA	-0.141 ± 0.039
CCTTACCG	-0.147 ± 0.02
ATGTAGAC	-0.194 ± 0.086
ATAGTTAG	0.012 ± 0.055
TAGGATGA	0.116 ± 0.049
GTATTGTA	-0.15 ± 0.039
CGGTGGAC	-0.175 ± 0.008
GACATGGA	-0.123 ± 0.018
CCTGGAGA	-0.0243 ± 0.11
GATGTGAC	0.273 ± 0.019
GATCGATC	-0.0756 ± 0.032
CACTCGAG	0.0747 ± 0.019
CCTCCTCC	-0.123 ± 0.004
CAACTACA	0.142 ± 0.06
